# Experimental data taken from PMC4336329 (PLoS ONE, 2015).
# Out of some 310,000 compounds screened, about 2,200 (0.71%) showed an effect of 50% or more. Effects have a minus sign here. The list shows a part of the results.
# Biological target: human ether-à-go-go-related gene (hERG) potassium channel (human, UniProt Q12809)
# Experiment: primary screen, population patch clamp on CHO cells stably expressing hERG
# Chain of human ether-à-go-go-related gene (hERG) potassium channel (Q12809 whole entry, looked up): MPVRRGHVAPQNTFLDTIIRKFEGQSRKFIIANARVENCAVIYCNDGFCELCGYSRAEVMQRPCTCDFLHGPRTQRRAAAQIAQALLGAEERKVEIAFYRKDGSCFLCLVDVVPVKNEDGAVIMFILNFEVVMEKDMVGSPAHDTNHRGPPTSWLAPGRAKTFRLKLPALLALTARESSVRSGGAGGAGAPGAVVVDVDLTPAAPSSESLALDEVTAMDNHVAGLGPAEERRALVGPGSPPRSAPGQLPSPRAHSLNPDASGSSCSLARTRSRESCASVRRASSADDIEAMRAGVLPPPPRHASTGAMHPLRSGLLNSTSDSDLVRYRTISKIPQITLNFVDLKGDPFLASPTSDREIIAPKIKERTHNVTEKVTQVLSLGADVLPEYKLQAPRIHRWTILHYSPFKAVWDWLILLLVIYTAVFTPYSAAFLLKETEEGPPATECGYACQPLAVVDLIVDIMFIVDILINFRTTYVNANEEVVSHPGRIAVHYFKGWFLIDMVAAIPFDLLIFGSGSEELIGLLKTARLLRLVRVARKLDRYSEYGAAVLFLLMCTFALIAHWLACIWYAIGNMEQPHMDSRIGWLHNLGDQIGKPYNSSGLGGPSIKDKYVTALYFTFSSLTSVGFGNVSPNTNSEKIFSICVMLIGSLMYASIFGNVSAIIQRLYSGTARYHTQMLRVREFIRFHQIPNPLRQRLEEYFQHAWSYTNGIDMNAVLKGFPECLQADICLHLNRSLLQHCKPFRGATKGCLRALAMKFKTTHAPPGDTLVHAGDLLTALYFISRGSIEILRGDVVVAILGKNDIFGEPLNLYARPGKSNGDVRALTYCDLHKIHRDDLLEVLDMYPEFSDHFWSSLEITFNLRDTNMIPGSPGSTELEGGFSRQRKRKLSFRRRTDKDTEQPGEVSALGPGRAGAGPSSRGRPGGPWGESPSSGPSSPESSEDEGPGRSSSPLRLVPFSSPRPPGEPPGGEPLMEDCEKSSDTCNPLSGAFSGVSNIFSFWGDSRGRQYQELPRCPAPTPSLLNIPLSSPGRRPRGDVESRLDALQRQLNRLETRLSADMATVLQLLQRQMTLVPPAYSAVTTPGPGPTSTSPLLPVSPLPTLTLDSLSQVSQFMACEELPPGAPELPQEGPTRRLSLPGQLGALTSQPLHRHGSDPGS
row,SMILES,"hERG current change (%, negative = inhibition) at 1uM [%]"
1,O=C(CNC(=O)c1ccco1)Nc1ccc(S(=O)(=O)N2CCCC2)cc1,9.96
2,CC(=O)Nc1ccc2oc(-c3ccccc3Br)nc2c1,2.91
3,CCOC(=O)c1cc(-c2csc(-c3ccc(C(F)(F)F)cc3)n2)on1,12.4
4,O=C(Nc1ccccc1)c1cc([N+](=O)[O-])ccc1NC1CCCCC1,9.27
5,COc1ccc(/C(C)=N/NC(=O)CNC(=O)CCc2ccccc2)c(OC)c1,9.77
6,NC(=O)c1c(NC(=O)c2ccccc2)sc2c1CCC2,11.4
7,O=C(NCC(=O)N(CC1CCCO1)C(C(=O)NC1CCCCC1)c1cccnc1)c1cccs1 (centres unmarked),12.3
8,O=Cc1c(Cl)nc2ccccn2c1=O,0.383
9,Cc1[nH]nc(-c2ccc(OCc3cnn(-c4ccccc4)c3)cc2O)c1Oc1ccccc1F,11.5
10,CC(C)C(=O)Nc1nc2ccc(S(C)(=O)=O)cc2s1,6.1
11,CCOc1ccc(NC(=O)NCc2ccc3c(c2)OCO3)cc1,12
12,CCOC(=O)c1cnc2nc(C)[nH]n2c1=O,9.5
13,O=C1CN(C(=O)CC2C(=O)NCCN2Cc2ccccc2C(F)(F)F)CCN1 (centres unmarked),10.9
14,O=C(O)CCC(=O)N1CCN(S(=O)(=O)c2cccs2)CC1,21.4
15,O=C(c1cn(-c2ccccc2)nc1-c1cccnc1)N1CCCC(C(F)(F)F)C1 (centres unmarked),-4.05
16,COc1cc(C)c(NC(=S)NCCCN2CCOCC2)cc1OC,-5.81
17,Cc1ccc(C(=O)N2CCN(S(=O)(=O)c3cc(Br)ccc3Br)CC2)o1,-0.209
18,O=C(CSc1ncccn1)N1CCN(C(=O)CSc2ncccn2)CC1,-1.62
19,COc1ccc(CC(=O)Nc2sc3c(c2C#N)CC(C)(C)NC3(C)C)cc1OC,9.58

row,SMILES,"hERG current change (%, negative = inhibition) at 1uM [%]"
1,Cc1c(Cc2ccccc2)c(=O)oc2cc(OCC(=O)c3ccccc3)ccc12,10.3
2,C=CCN1C=CC=C/C1=C1\SC(=S)N(C)C1=O,14.2
3,COc1cccc(Cn2c(=O)c3[nH]cnc3n(-c3ccccc3C)c2=O)c1,5.01
4,Cc1cc(C)c(NC(=O)COC(=O)CCc2ccc(S(=O)(=O)N3CCCCC3)cc2)c(C)c1,7.56
5,O=C(C[n+]1ccccc1)N/N=C/c1ccc(Cl)c(Cl)c1.[Cl-],7.26
6,COC(=O)C1=C(N)Oc2cc(C)n(Cc3cccnc3)c(=O)c2C1c1ccc(OC)c(OC)c1 (centres unmarked),0.136
7,O=C(CC1SC(=O)NC1=O)Oc1ccc(/C=N/NC(=O)c2ccccc2O)cc1 (centres unmarked),9.35
8,CCn1cc(C(=O)N[C@@H](CC(C)C)C(=O)NCCCn2ccnc2)c(=O)c2cc3c(cc21)OCO3,17.4
9,O=C(COC(=O)c1ccc(OC(F)F)cc1)NCCCN1CCCC1=O,0.628
10,O=c1c(-c2nn[nH]n2)coc2ccc(Cl)cc12,15.5
11,CCOc1ccc(CC(=O)NCc2cn3c(C)csc3n2)cc1,13.7
12,CCC(CC)C(=O)c1c[nH]c(C(=O)NCc2ccccc2)c1,8.11
13,Cc1ccccc1-c1nnn(Cc2cccc(S(=O)(=O)N3CCOCC3)c2)n1,10.9
14,O=C(COc1ccc2c(c1)OCO2)Nc1nncs1,11.3
15,N#Cc1nc(COc2ccc(F)cc2)oc1N1CCC(Cc2ccccc2)CC1,7.85
16,CCOc1ccc(NC(=O)CCC(=O)Nc2nnc(CC)s2)cc1,7.76
17,Cc1ccc2nc(Cl)c(C3CC(c4ccco4)=NN3S(C)(=O)=O)cc2c1 (centres unmarked),-9.31
18,Fc1ccc(CNc2ncccn2)cc1,12.1
19,CN(CC(=O)Nc1ccccc1Cl)C1CCCCC1,6.46

row,SMILES,"hERG current change (%, negative = inhibition) at 1uM [%]"
1,CCn1c(SCC(=O)N2CCCC(C)C2)nnc1-c1ccco1 (centres unmarked),3.63
2,Cc1ccccc1/C=N/Nc1ccnc2cc(Cl)ccc12,5.75
3,COC(=O)CNc1nc(Cl)nc(N2CCC(C)CC2)n1,11.8
4,O=C(CCN1CCN(C(c2ccccc2)c2ccccc2)CC1)N/N=C/c1ccc(O)cc1,-24.9
5,Cc1ccnc(NC(c2ccccn2)c2c(C)[nH]c3ccccc23)c1 (centres unmarked),7.31
6,COc1cc(NC(=O)C2CC(c3ccc(Cl)cc3)=NO2)cc(OC)c1OC (centres unmarked),14.2
7,Cc1cc(/C=C2\C(=O)NC(=O)N(Cc3ccccc3)C2=O)c(C)n1C1CC1,5.17
8,C=CCc1ccccc1OCC(O)CN1CCN(Cc2ccc3c(c2)OCO3)CC1 (centres unmarked),-45.4
9,COc1ccccc1CNC(=O)CCCn1nc(C)c2c(C)n(-c3ccccc3)nc2c1=O,7.11
10,CN(C)/C=N/c1c(C#N)cnn1C,6.97
11,Cn1c(N/N=C/c2c[nH]c3ccccc23)nc2ccccc21,-5.14
12,Cc1nc2ccccc2c(=O)n1NC(=O)c1ccc(C(C)(C)C)cc1,18
13,C#CCOCCOCCOCCNc1nc(N2CCN(C(=O)[C@H](CCCCN)n3cc([C@@H](N)C(C)CC)nn3)CC2)nc(N2CCN(C(=O)[C@H](CCCCN)n3cc([C@@H](N)CO)nn3)CC2)n1.Cl (some centres unmarked),12
14,O=C(Nc1nc(-c2cccs2)cs1)C1=COCCO1,1
15,O=C(OCC(=O)N1CCN(c2ccccc2)CC1)c1nc(Cl)ccc1Cl,2.65
16,COc1ccc(Nc2nc(N)nc(CSC(=S)N3CCCCC3C)n2)cc1 (centres unmarked),9.64
17,Cc1cc(C)n(-c2c(F)c(F)c(COC(=O)c3ccccc3)c(F)c2F)n1,10.2
18,Cc1nonc1CN(C)C(=O)CC1C(=O)NCCN1Cc1ccc(F)c(F)c1 (centres unmarked),8.67
